Data from PMC12040169 (PLOS Biology, 2025).
The list shows a part of the results.

system: T1, C. trachomatis L2/434/Bu expressing GFP (CTL2-GFP); design: species or system HeLa; C. trachomatis total inclusion area by high-content imaging, normalised to DMSO; conditions: total inclusion area; 28.5 h, 10 µM; inhibitor
T1 construct: L2/434/Bu GFP intracellular growth in HeLa cells
Method in brief: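 Imaging read-out: GFP inclusions and Hoechst nuclei captured by high-content imaging after fixation. Inclusion area/number = chlamydial growth; nuclei count = host cell viability. MIC calculated per earlier method.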

Compound | % of control remaining
Cc1cc(C)n(CCn2cc(-c3ncc[nH]3)nn2)c(=O)n1 [CBK307554] | 86.5594
COc1ccccc1Cc1cccc(C2CCCN2C(=O)Cc2c[nH]c3ccccc23)n1 (stereo not drawn) [CBK286139] | 75.9738
Cc1cc(S(=O)(=O)Nc2ccccc2-c2nnnn2C(C)C)c(C)o1 [CBK306259] | 77.9341
O=c1[nH]c(=O)c2cc(S(=O)(=O)Nc3ccccc3-c3ccccc3)ccc2[nH]1 [CBK286374] | 92.1051
Cn1nc(-c2cccs2)cc1[C@H]1CN2CC[C@H]1C[C@@H]2CNC(=O)c1ccco1 [CBK289100] | 104.099
Cc1cc(NC(=O)CN2CCCC2CC(O)c2ccccc2)no1 (stereo not drawn) [CBK305139] | 52.1793
S=c1[nH]cnc2sc3c(c12)CCCC3 [CBK027787] | 67.3897
CC(=O)Nc1ccc(-c2ccc(C(=O)NCC3COc4ccccc4O3)cn2)cc1 (stereo not drawn) [CBK158832] | 86.3473
Cc1cc(C)c2nc(NC(=O)c3ccc(=O)n(CC(=O)NC4CCCCC4)c3)sc2c1 [CBK285980] | 84.3411
Cc1nnc(SCc2cc(=O)nc(NC(=N)Nc3cccc(Cl)c3)[nH]2)s1 [CBK266318] | 54.8238
C1=CCC(CN(CCCn2ccnc2)CC2CCOC2)CC1 (stereo not drawn) [CBK283217] | 115.663
Cc1cc(COc2ccnc(N3CCCN(CC(N)=O)CC3)n2)no1 [CBK084036] | 48.0854
Cc1ccc(C(CNCc2cn(C)nc2-c2cccnc2)N(C)C)cc1 (stereo not drawn) [CBK305343] | 91.8922
N#CCCCN1CCC(Oc2nccnc2OCc2ccc(-c3ccccc3)cc2)CC1 [CBK161566] | 61.8195
CC(=O)Nc1ccc(Nc2cc(-c3ccco3)ncn2)cc1 [CBK090719] | 152.829
Cc1cccc(-c2ncc(C(=O)NCc3csc4ccc(Cl)cc34)cc2-c2ccncc2)c1 [CBK036770] | 72.6827
COC(=O)C(C)CN1CC2CCC(CC2)C1 (stereo not drawn) [CBK022785C] | 75.3239
CCCc1cnc(N2CCN(CC(=O)Nc3ccc(C(C)=O)cc3)CC2)nc1 [CBK086194] | 108.887
Cc1ccc(S(=O)(=O)N(CC(=O)Nc2ccccc2-c2ccccc2)c2cccc(C)c2)cc1 [CBK265988] | 66.9098
Cc1ccc2nsnc2c1NC(=O)CN1CCC(C)CC1 [CBK269568] | 92.2371
O=c1[nH]c(NCCCO)nc2sc3c(c12)CCCC3 [CBK025611] | 30.0022

Compound | % of control remaining
O=C(Cn1cnc2c(oc3ccccc32)c1=O)Nc1ccc2c(c1)OCO2 [CBK287557] | 92.3633
CNC(=O)C1(Cc2cccc(-c3cccs3)c2)CCN(C(=O)CCc2ccccc2)CC1 [CBK285913] | 115.108
CN(C)c1cccc(COc2cncc(N3CCNCC3)n2)c1 [CBK200004] | 46.5885
Cc1cc(S(=O)(=O)Nc2cccc(C(=O)O)c2)c(C)c(S(=O)(=O)c2ccccc2)c1 [CBK263227] | 56.2784
Cc1c(NC(=S)NCCCN2CCOCC2)c(=O)n(-c2ccccc2)n1C [CBK008032] | 67.2556
CC(SC1CCc2ccccc2NC1=O)C(=O)O (stereo not drawn) [CBK286652] | 77.1123
CCOC(=O)N1CCC(NC(=O)N2CCN(c3ccc(F)cc3)CC2)CC1 [CBK156429] | 96.3433
O=C1N[C@@H]2CCN(C(=O)COc3cccnc3)C[C@@H]2CCCCCOc2ccccc21 [CBK292037] | 132.598
Cc1nc(C)c(C(=O)NCC(C)(C)N2CCCCC2)o1 [CBK281866] | 103.682
O=C1NC[C@@H](Cc2ccccc2)NC(=O)C2(C/C=C/COc3ccccc31)CCN(C(=O)CN1CCCC1)CC2 [CBK292184] | 65.267
Cc1ccc(S(=O)(=O)CC(=O)Nc2ncccn2)cc1 [CBK269800] | 102.593
N#Cc1ccc2nc([C@H]3CCN(C(=O)c4ccccc4)C3)[nH]c2c1 [CBK289379] | 106.398
CCNC(=O)N1C[C@@H]2OCC(=O)N(Cc3ccccc3)[C@@H]2C1 [CBK289679] | 99.406
CC(NC(=O)c1ccc(F)cc1Cl)c1ccccc1 (stereo not drawn) [CBK270317] | 86.2325
CCN(CC)C(=O)CN1CCN(c2nccnc2OCc2cccnc2)CC1 [CBK083140] | 94.7741
C[C@@H](Cn1nc2c(cc1=O)CCCC2)NC(=O)c1ccccc1F [CBK284560] | 106.531
COc1ccc(C2CCN(CC(=O)NCc3ccco3)CC2)cc1 [CBK283562] | 95.6553
COc1cc(NC(=O)COc2cccc3ccccc23)c(C(=O)O)cc1OC [CBK268253] | 130.812
O=C(c1c[nH]c(=O)c(Cl)c1)N1CCCCC1CN1CCOCC1 (stereo not drawn) [CBK304416] | 99.6679
COc1ccc(-n2ncc3c2CC(C)(C)CC3N)cc1 (stereo not drawn) [CBK306789] | 95.7238
CN1CCC(=NNC(=O)c2ccc(CN3CCOCC3)cc2)CC1 [CBK262749] | 87.9799

Compound | % of control remaining
Cc1c(CN2CCCCC2CCN2CCCC2=O)oc2ccccc12 (stereo not drawn) [CBK282181] | 91.1874
O=C(Cc1ccccn1)N1CCN(Cc2ccccc2)CC1 [CBK200174] | 96.951
Cc1ncsc1CCOC(=O)N1C[C@@H](C)O[C@@H](C)C1 [CBK200418] | 89.0743
Clc1ccc(-c2ccc(CNCCCN3CCOCC3)o2)cc1 [CBK269562C] | 94.0565
O=C(Nc1ccncc1)c1c(O)n(Cc2ccccc2)c2ccccc2c1=O [CBK291222] | 87.3844
C=Cn1ncc(CN(CCN(C)C)Cc2ccc(C)o2)c1C [CBK283236] | 92.8143
CCOC(=O)N1CCC(NS(=O)(=O)c2ccc(NC(C)=O)cc2)CC1 [CBK045470] | 58.6587
Cc1ccc(C(=O)NC2CCCC2)cn1 [CBK200117] | 97.865
O=C(CN1CC(O)CC1c1cccc(C(F)(F)F)c1)NCc1cccs1 (stereo not drawn) [CBK305253] | 90.8724
CC1=NN(c2ccc(S(N)(=O)=O)cc2)C(=O)/C1=C\c1ccc(-c2cc([N+](=O)[O-])ccc2C)o1 [CBK263460] | 103.125
Cc1cccc(NS(=O)(=O)c2ccc(I)cc2)n1 [CBK268818] | 108.698
CCOc1ccc(S(=O)(=O)N2CCC(C(=O)N3CCN(C)CC3)CC2)cc1 [CBK270075] | 82.7437
COc1ccc(N2CCN(c3cncc(-c4cccnc4)n3)CC2)cc1OC [CBK066086] | 79.7324
CCN(CC)C(=O)c1cccc(OC)c1 [CBK012105] | 103.315
c1ccc2[nH]c(CCc3nc4ccccc4[nH]3)nc2c1 [CBK261807] | 83.8447
O=C1CC2(CCCC2)C(=O)N1c1ccc(S(=O)(=O)NC2CCN(Cc3ccccc3)CC2)cc1Cl [CBK074650] | 86.6888
Cc1nn(C)c(C)c1CN(C)C(=O)CCCC(=O)O [CBK286879] | 97.0491
NNC(=O)CNC(c1cc(Br)ccc1N)c1ccccc1Cl (stereo not drawn) [CBK262977] | 102.481
c1ccc(-n2nnnc2CSc2nc3ccccc3s2)cc1 [CBK266372] | 72.2142
CC1CN(C(=O)c2ncoc2-c2ccc(F)cc2)CC(C)O1 (stereo not drawn) [CBK282379] | 108.378
CC(=O)Nc1cccc(CNC(=O)c2cccnc2OCC(F)(F)F)c1 [CBK304557] | 46.9763

Compound | % of control remaining
CSCCCNC(=O)N1CCN(CCc2ccccc2)CC1 [CBK158900] | 98.513
CC(=O)NCCNC(=O)c1cc(Br)c[nH]1 [CBK297767] | 99.773
Oc1ccc(CN2CCN(c3ncccn3)CC2)cc1 [CBK261567] | 93.2293
Oc1ccc(/C=N/Nc2nncc(-c3ccccc3)n2)c(O)c1O [CBK262492] | 65.0183
O=C(c1cccc(NS(=O)(=O)c2cc(F)c(Br)cc2F)c1)N1CCOCC1 [CBK039007] | 81.9855
Cc1csc2ncnc(NCCc3ccccn3)c12 [CBK017060] | 58.0736
COc1ccc(/C=C/c2nc(C#N)c(NCc3cccnc3)o2)cc1OC [CBK269240] | 83.004
Cc1nc(C)c(C(=O)N2CCc3[nH]c4ccccc4c3C2)o1 [CBK281873] | 93.7637
OC1(c2cccnc2)C2CCCC1CN(Cc1cccc(F)c1F)C2 (stereo not drawn) [CBK285205] | 89.9612
O=C(NCC1CCCCC1)N1CCN(c2ccc(F)cc2)CC1 [CBK156397] | 91.5732
Cc1c(C)[n+]([O-])c2cc(N3CCN(C)CC3)c(Cl)cc2[n+]1[O-] [CBK263503] | 93.151
CC(C(=O)NC1(C#N)CCCCC1)N1CCOC(CN(C)C)C1 (stereo not drawn) [CBK305155] | 105.278
Cc1cccc(C)c1OCC(=O)N1CCC(c2cc(C(=O)NC(C)C)c3ccccc3n2)C1 (stereo not drawn) [CBK285916] | 95.4162
CCc1noc(C(C)N2CCN(CC(=O)NCc3ccco3)CC2)n1 (stereo not drawn) [CBK305368] | 58.2814
Cc1cc(N2CCOCC2)c2c(N)c(C)cc(C)c2n1 [CBK126908] | 107.925
O=C(c1ccccc1)n1cc(-c2ccccn2)c(N2CCOCC2)n1 [CBK021010] | 99.8723
COC(=O)CNC(c1cc(Br)ccc1N)c1ccccc1Cl (stereo not drawn) [CBK262605] | 105.589
Cc1ccc(N)c(C(=O)CCCCC(=O)O)c1 [CBK260970] | 83.1714
